In PubChem BioAssay AID686978 (National Center for Advancing Translational Sciences (NCATS), 2013):
The campaign covered roughly 420,000 compounds. About 64,000 (15%) were called active. Inconclusive results, whose numbers are uncertain, are shown with a selection of clear calls. Calls come from the whole dose curve; as a rule, active = well fitted inhibition curve with a large enough effect; inconclusive = small, poorly fitted or top-dose-only effect; inactive = flat fitted curve, though single readings scatter. No potency is given beside an inconclusive call; the fits are too rough.

Assay: qHTS for Inhibitors of human tyrosyl-DNA phosphodiesterase 1 (TDP1): qHTS in cells in absence of CPT; note: nearly all actives have a fitted effect of over 55% in size
Settings: DT40 Tdp1-/- hTDP1 cells, no CPT, ATP luminescence, 48 h; activity change, negative = growth inhibition: at 46.2 µM (top of the series) unless noted
Summary of the method: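 Camptothecin absent (DMSO only). Human TDP1-complemented DT40 knockout cells, 400 cells/well, 37 °C for minimum 48 hr; ATP measured via CellTiter-Glo, 30 min dark incubation, luminescence.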
% is set by controls: 0 for no effect and ±100 for the full control effect; potency is the fitted concentration of half-maximal effect; tags give direction and shape of the fitted curve.

Row | Compound | Potency | activity change, negative = growth inhibition
1 | COc1ccc(-c2nc3cc(C)ccn3c2NC2CCCCC2)cc1SC1CCCCC1 | active: 20.9 µM | 
2 | Cc1coc2c1c(C)cc1oc(=O)c(Cc3ccccc3)c(C)c12 | inconclusive [inhibitor, single point] | 
3 | OC1=C(O)c2nc3cc(C(F)(F)F)ccc3nc21 | inconclusive [inhibitor, single point] | 
4 | COc1ccc(C2/C(=C(/O)c3ccccc3)C(=O)C(=O)N2C)cc1OC (stereo unspecified) |  | inactive: -5.16%
5 | FC(F)(F)c1ccc(C2[C@H]3CN(Cc4ccc(-c5ccccc5)cc4)[C@H](c4ccccc4)C34CC2(c2cccnc2)C4)cc1 (stereo partly specified) | inconclusive [inhibitor, single point] | 
6 | O=C1Nc2ccccc2S/C1=C/c1cccs1 |  | inactive: -10.5%
7 | CC(=O)N1CCc2cc(Br)cc(S(=O)(=O)N3CCC(C(=O)Nc4ccc(C(C)C)cc4)CC3)c21 | inconclusive [inhibitor, single point] | 
8 | O=c1c2ccccc2sc2ccc(C#CC3(O)CCCCC3)cc12 | inconclusive [inhibitor, single point] | 
9 | CCOC(=O)c1ccc(-n2c(CCC(=O)O)ccc2-c2ccccc2)cc1 | inactive | 
10 | CCN(c1ccccc1)S(=O)(=O)c1ccc(Cl)c(C(=O)N(CC2CCCO2)C2CCS(=O)(=O)C2)c1 (stereo unspecified) | active: 20.6 µM | 
11 | Cc1nn(-c2ccc(NC(=O)c3ccncc3)cc2)c(C)c1Cl | inconclusive [inhibitor, single point] | 
12 | COc1ccc(-c2nc3c(c4nnc(SC(C)C(=O)Nc5ccc(C)cc5)n24)COC(C)(C)C3)cc1 (stereo unspecified) | inconclusive [inhibitor, single point] | 
13 | CCOc1ccc(/C=C/c2nc(C#N)c(NC(C)c3ccccc3)o2)cc1 (stereo unspecified) | active: 11.6 µM | 
14 | Cn1ccsc1=NC(=O)c1ccc(S(C)(=O)=O)c([N+](=O)[O-])c1 | active: 4.61 µM | 
15 | Cn1ncc2c(N3CCN(c4ccccc4F)CC3)ncnc21 | active: 23.1 µM | 
16 | O=C(Nc1c(Cl)cc(Cl)cc1-c1nc2ccccc2s1)c1ccc(Br)o1 | inconclusive [inhibitor, single point] | 
17 | O=C(COC(=O)c1c2c(nc3ccccc13)/C(=C\c1ccco1)CC2)NC1CCCC1 | active: 23.1 µM | 
18 | CCN=C1S/C(=C\c2cc(Br)ccc2OCC(=O)OCC)C(=O)N1CC | inconclusive [inhibitor, single point] | 
19 | COc1cccc(CN2CCC3(CCC(CNC(=O)c4cc(C)nn4C)O3)CC2)c1OC (stereo unspecified) |  | inactive: -19.7%
20 | Cc1ccccc1OCC(=O)NCC(c1ccc(Cl)cc1)N1CCCCC1 (stereo unspecified) | active: 13 µM | 
21 | CN(C)S(=O)(=O)Nc1cc(Cl)cc(Cl)c1 | inconclusive [inhibitor, partial curve, poor fit] | 
22 | O=C(Nc1ccc(Oc2ccccc2)cc1)c1csc([C@@H]2O[C@H](CO)[C@H](O)[C@H](O)[C@H]2O)n1 |  | inactive: -4.96%
23 | CCOC(=O)c1cc(C(=O)Nc2ccccc2F)nn1C | inconclusive [inhibitor, single point] | 
24 | Cc1ccc(CN2CCc3c(OCc4ccc(F)cc4)cccc3C2=O)cc1 | inconclusive [inhibitor, single point] | 

Row | Compound | Potency | activity change, negative = growth inhibition
25 | Cc1cccc(C)c1NC(=O)c1c(-c2ccccc2)noc1C |  | inactive: -8.35%
26 | C/C(=C\C(=O)c1ccc(Cl)cc1)Nc1ccc(N2CCOCC2)cc1 | inconclusive [inhibitor, full curve, poor fit] | 
27 | COc1ccccc1N1CCN(C(=O)Nc2cccc(C)c2)CC1 |  | inconclusive: -28.1% [inhibitor]
28 | Cc1cccc(C)c1C(OCCN(C)C)C1CCCCC1 (stereo unspecified) | inconclusive [inhibitor, partial curve] | 
29 | CC(Oc1ccc2c3c(c(=O)oc2c1)CCCC3)C(=O)NCc1cccnc1 (stereo unspecified) | inconclusive [inhibitor, single point] | 
30 | COc1ccc(NC(=O)c2cccs2)cc1NC(=O)c1ccco1 | inconclusive [inhibitor, single point] | 
31 | CC(=O)Nc1ccc(S(=O)(=O)N(Cc2cccnc2)Cc2cc3ccc(C)cc3[nH]c2=O)cc1 | active: 14.6 µM | 
32 | CN(C)c1ncc2nc(CCc3ccccc3)c(=O)n(CCC#N)c2n1 |  | inactive: -29.4%
33 | COc1cccc(C(=O)N2c3ncnn3C3(CCCCC3)[C@@H]3CCCC[C@@H]32)c1 | inconclusive [inhibitor, single point] | 
34 | O=C1CCCN1C(=O)CSc1ncnc2sccc12 |  | inactive: 1.02%
35 | O=C(CC(c1ccccc1)c1cc(Br)ccc1O)NCc1ccco1 (stereo unspecified) | inconclusive [inhibitor, single point] | 
36 | CCOc1ccc(OCCCC(=O)NC2=NCCS2)cc1 |  | inactive: -7.85%
37 | C[C@@H]1CCCCO[C@H](CN(C)C(=O)C2CCCCC2)[C@@H](C)CN([C@H](C)CO)C(=O)c2cc(N(C)C)ccc2O1 | inconclusive [inhibitor, single point] | 
38 | O=C(N/N=C\c1cn[nH]c1-c1ccccc1)c1cccs1 |  | inactive: -24.3%
39 | COc1ccc(NC(=O)C2=CC(c3ccc(C)cc3)=NS(=O)(=O)N2C)cc1 | active: 23.1 µM | 
40 | Cc1cc(C)c(NC(=O)CN(C)C(C)C(=O)N2CCc3ccccc32)c(C)c1 (stereo unspecified) | inconclusive [inhibitor, single point] | 
41 | COc1ccc(C2CC(c3ccccc3)=NN2C(=O)COC(=O)c2ccc(S(C)(=O)=O)cc2)cc1 (stereo unspecified) | inconclusive [inhibitor, single point] | 
42 | Cc1cc(CN2CCC(N3CCC(C(=O)NC4CC4)CC3)CC2)cc(C)c1O |  | inactive: 3.65%
43 | CCOc1ccc(Nc2cc(C)nc(N3CCOCC3)n2)cc1 | inconclusive [inhibitor, single point] | 
44 | COc1ccc(S(=O)(=O)N2CCOCC2)cc1NC(=O)CCc1c[nH]c2ccccc12 | inconclusive [inhibitor, single point] | 
45 | CCCCCCCCCCOC(=O)C[N+](C)(C)CC1CCCCC1O (stereo unspecified) |  | inactive: -24.1%
46 | CC(NC(=O)/C=C/c1ccccc1)c1ccccc1 (stereo unspecified) | inconclusive [inhibitor, partial curve, poor fit] | 
47 | CSCCC(NC(=O)c1ccccc1Br)C(=O)NNC(=O)C1COc2ccccc2O1 (stereo unspecified) |  | inactive: 2.82%
48 | CCC(C)C(CO)NCCCn1cnc2c(OC)ncnc21 (stereo unspecified) |  | inactive: -5.16%

Row | Compound | Potency | activity change, negative = growth inhibition
49 | N#Cc1cc(C(=O)c2cc(F)ccc2O)cn(Cc2ccccc2)c1=O | inconclusive [inhibitor, single point] | 
50 | O=C(O)CC1(CC(=O)N2CCC(C(=O)O)CC2)CCCC1 |  | inactive: 9.87%
51 | Cc1cccc(C)c1C(O)c1ncc(-c2ccc(Cl)cc2)[nH]1 (stereo unspecified) | inconclusive [inhibitor, single point] | 
52 | COc1ccc(CNC(=O)CN2C(=O)NC(c3ccccc3)(c3ccccc3)C2=O)cc1OC |  | inactive: -13.2%
53 | COc1c(F)cccc1C1=CC(=O)C[C@H](c2ccc(F)cc2)C1 |  | inactive: -6.45%
54 | COc1ccc(S(=O)(=O)NNC(=O)c2csc(-n3nc(C)cc3C(F)(F)F)n2)cc1 | inconclusive [inhibitor, single point] | 
55 | CC(C)S(=O)(=O)C1=NSC2=NC(=O)/C(=C\c3ccc(OC(=O)c4ccco4)cc3)C(=N)N21 | inconclusive [inhibitor, single point] | 
56 | Cc1cc(C)c(S(=O)(=O)c2ccc(F)cc2C)c(Cl)n1 | inconclusive [inhibitor, partial curve] | 
57 | C[C@]1(C(=O)NCCCNc2ncc(C(F)(F)F)cc2Cl)C=C[C@@H](Cc2ccccc2)N1C(=O)c1ccccc1 | active: 25.9 µM | 
58 | Cc1ccc(C(=O)Nc2ccc(NC(=O)c3ccccc3Cl)c(C)c2)cc1 | inconclusive [inhibitor, single point] | 
59 | O=C(Nc1cccc(Cl)c1N1CCOCC1)c1ccco1 | inconclusive [inhibitor, partial curve] | 
60 | C[C@@H](C(=O)Nc1ccc2ccccc2c1)[C@@H]1C[C@@]1(C)[C@@H](NC(=O)c1cnccn1)c1ccccc1 | inconclusive [inhibitor, single point] | 
61 | COc1cccc(NC(=O)/C=C/c2ccc(S(=O)(=O)N3CCOCC3)cc2)c1 | inconclusive [inhibitor, single point] | 
62 | CC(C)CN(C)c1ccc(/C=C2\C=Cc3ccccc32)cc1 | active: 2.51 µM | 
63 | O=C(Cc1ncc(C(F)(F)F)cc1Cl)Nc1ccc(F)cc1 |  | inactive: -21.5%
64 | COc1ccccc1-c1nc(C(=O)NCC2CCCO2)cc2c1[nH]c1ccccc12 (stereo unspecified) | active: 14.6 µM | 
65 | COc1cc(NC(=O)c2cccs2)c(C(=O)OCC(=O)NC(C)c2ccccc2)cc1OC (stereo unspecified) | inconclusive [inhibitor, partial curve] | 
66 | CC(C)CC1=NN2C(=N)/C(=C\c3coc4ccccc4c3=O)C(=O)N=C2S1 |  | inactive: -0.0498%
67 | NCCc1nnc(SCc2ccccc2Cl)o1 |  | inconclusive: -34.2% [inhibitor]
68 | CNC(=O)/C(C#N)=C\c1ccc(CNS(=O)(=O)c2ccc(Cl)cc2)o1 | inconclusive [inhibitor, single point] | 
69 | Cc1ccc(S(=O)(=O)Nc2nc3ccccc3nc2NCC2CCCO2)cc1C (stereo unspecified) | inconclusive [inhibitor, partial curve] | 
70 | C=CCn1cnc2c(NCc3ccccc3)ncnc21 | inconclusive [inhibitor, single point] | 
71 | CC(C)C1C(=O)N(Cc2cn(CCC3OCCCO3)nn2)CCS(=O)(=O)N1Cc1ccc(-c2cccc(CO)c2)cc1 (stereo unspecified) | inconclusive [inhibitor, single point] | 
